Test results: paper PMC11799438
Results are given in words; binding and its absence hold for the method and conditions named. For some of these results: In cells and extracts the contact can be indirect. Some results given as binding are weak or reduced against the parent protein; the word gives no strength. Sequences can lack the tags named with a protein. Each block holds one substance with its values, some of them ahead of it.

Amino acid sequences for entries named in this document (tags omitted). A change or cut given only in a name is not applied to a line headed by its entry.
UniProt P09874: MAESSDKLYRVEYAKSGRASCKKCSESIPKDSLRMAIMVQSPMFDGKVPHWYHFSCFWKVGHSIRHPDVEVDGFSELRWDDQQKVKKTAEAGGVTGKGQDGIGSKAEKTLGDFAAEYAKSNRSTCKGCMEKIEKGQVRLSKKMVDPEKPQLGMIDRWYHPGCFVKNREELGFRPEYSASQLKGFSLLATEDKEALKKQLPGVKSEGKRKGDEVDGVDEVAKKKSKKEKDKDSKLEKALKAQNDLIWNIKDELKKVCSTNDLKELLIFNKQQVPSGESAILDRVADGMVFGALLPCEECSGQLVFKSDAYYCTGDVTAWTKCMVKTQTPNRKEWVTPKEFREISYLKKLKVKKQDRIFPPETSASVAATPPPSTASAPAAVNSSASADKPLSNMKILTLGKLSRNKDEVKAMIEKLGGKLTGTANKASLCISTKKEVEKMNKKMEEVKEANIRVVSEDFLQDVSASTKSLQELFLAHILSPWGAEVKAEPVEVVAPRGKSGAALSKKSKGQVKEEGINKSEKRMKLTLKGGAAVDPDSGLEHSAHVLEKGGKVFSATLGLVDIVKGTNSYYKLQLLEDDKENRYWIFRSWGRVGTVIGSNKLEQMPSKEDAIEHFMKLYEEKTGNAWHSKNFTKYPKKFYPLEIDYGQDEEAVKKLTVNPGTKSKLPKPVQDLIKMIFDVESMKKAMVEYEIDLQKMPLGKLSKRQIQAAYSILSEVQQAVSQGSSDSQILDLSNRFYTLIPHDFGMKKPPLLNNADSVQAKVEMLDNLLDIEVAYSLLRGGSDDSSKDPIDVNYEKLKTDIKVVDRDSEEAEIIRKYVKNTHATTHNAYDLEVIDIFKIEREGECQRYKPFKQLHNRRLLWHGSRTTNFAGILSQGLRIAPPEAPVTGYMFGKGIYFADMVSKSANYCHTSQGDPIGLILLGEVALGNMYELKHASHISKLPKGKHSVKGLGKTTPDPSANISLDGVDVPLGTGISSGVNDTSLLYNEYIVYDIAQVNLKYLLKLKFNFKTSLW

Columns and labels:
[1] = molecular target: T1, Flag-tagged full-length RECQL4 (human) (UniProt O94761); assay: co-IP; HEK293T cells co-transfected with V5-tagged PARP1 (full-length or fragments) with or without Flag-RECQL4; IP with anti-Flag beads, blot with anti-V5
T1 sequence: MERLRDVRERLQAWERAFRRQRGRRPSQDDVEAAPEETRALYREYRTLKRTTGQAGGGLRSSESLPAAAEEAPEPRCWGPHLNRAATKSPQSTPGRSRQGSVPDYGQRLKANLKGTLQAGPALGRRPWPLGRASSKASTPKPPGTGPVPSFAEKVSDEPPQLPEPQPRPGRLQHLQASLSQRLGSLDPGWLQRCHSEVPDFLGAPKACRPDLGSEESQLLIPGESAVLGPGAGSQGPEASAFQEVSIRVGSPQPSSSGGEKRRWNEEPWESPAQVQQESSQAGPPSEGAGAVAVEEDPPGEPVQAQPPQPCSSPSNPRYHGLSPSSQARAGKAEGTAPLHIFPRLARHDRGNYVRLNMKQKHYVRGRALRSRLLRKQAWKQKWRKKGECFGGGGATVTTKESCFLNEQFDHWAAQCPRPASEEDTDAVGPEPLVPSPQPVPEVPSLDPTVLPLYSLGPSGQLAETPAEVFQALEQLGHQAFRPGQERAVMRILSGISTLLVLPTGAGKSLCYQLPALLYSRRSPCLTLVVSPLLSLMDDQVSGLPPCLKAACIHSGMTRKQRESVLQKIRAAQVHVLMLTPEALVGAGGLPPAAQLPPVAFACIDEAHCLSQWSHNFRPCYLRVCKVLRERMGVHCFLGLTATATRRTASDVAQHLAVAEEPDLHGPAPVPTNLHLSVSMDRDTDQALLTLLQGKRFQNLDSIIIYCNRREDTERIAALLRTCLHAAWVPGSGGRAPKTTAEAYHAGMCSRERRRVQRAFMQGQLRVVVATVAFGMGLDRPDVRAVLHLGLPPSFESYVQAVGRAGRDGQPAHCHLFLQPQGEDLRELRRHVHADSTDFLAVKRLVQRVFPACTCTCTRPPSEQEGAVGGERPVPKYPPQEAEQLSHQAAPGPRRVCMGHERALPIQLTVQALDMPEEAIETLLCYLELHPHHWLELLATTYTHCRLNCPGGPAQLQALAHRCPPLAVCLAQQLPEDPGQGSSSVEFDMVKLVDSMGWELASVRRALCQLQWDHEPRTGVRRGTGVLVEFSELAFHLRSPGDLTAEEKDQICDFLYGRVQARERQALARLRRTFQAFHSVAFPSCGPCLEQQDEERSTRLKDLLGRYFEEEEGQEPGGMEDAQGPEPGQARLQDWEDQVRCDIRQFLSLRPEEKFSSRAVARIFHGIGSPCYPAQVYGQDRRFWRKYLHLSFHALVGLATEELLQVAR

[2] = molecular target: T2, purified recombinant His–RECQL4 (human) (UniProt O94761); assay: pull-down; purified recombinant His-RECQL4 bound to Ni-NTA beads, soluble PARP1; Ni-NTA alone as control; western blot with anti-His and anti-PARP1; both purified
T2 sequence: T1 sequence

[3] = molecular target: T1, Flag-tagged full-length RECQL4 (human); assay: co-IP; U2OS cells with Flag-RECQL4, with or without 10 Gy IR and 5 µM olaparib (3 h); anti-Flag beads, blot for endogenous PARP1; benzonase-treated
[4] = molecular target: T3, GFP–RECQL4 (human) (UniProt O94761); assay: co-IP; GFP-RECQL4 IP from PARPi (olaparib)-treated cells before and after IR
T3 sequence: T1 sequence

[5] = molecular target: T3, GFP–RECQL4 (human); assay: co-IP; GFP-RECQL4 IP from WT cells before and after IR (also with Mirin); blots for XRCC1, PARP1 and LIG3

binding [1]: binds
Substance: V5-tagged PARP1 domain C (amino acids 1–461) (from UniProt P09874 1-461) (domain or fragment)

binding [1]: binds
Substance: V5-tagged PARP1 domain G (aa 662–1,014) (from UniProt P09874 662-1014) (domain or fragment)

binding [1]: binds
Substance: V5-tagged full-length PARP1 (from UniProt P09874 1-1014)

binding [2]: binds
Substance: active PARP1 enzyme (Active Motif 81737) (from UniProt P09874 1-1014)

binding [3]: binds | binding [5]: binds
Substance: endogenous PARP1 (from UniProt P09874 1-1014)
binding [4]: no binding (condition: PARPi-treated cells)
